Read counts are not given, so values of variants with three or more changes are uncertain.

Sequences and labels used below:
B1: LINE1-mini (parent)
chain: GGCAGAGCUCAACACAGCGUGGCAAAGUGGCUGUGGCUAGACUGCC

The variants in the data set derive from B1. Nature of the data set: self-cleavage, relative activity (ratio to wild type); higher = more cleavage; in vitro, sequencing; the parent is a self-cleaving ribozyme.
Regarding G5C C10U C15G G22C G30U U32G G44C, the self-cleavage turned out to be 0.01.

Consider G5C C13U A16G G29C C45G, for which the self-cleavage stood at 0.

Consider G5C G7A G17C, for which the self-cleavage was 0.17.

Regarding G5A U28C G33C G36A, the self-cleavage came to 0.02.

With G5C C10G C23A C31U G35C, the self-cleavage was 0.

Consider G5C A6C G7C U9C, for which the self-cleavage came to 0.06.

In the case of G5C A24C G33A, the self-cleavage worked out at 0.01.

For the variant G5C C13A A16G, the self-cleavage was determined as 0.02.

For G5A U9A G17A G21C C23G A39G C45G, the self-cleavage amounted to 0.08.

For the variant G5C C31A G35A, the self-cleavage is 0.03.

Turning to G5C C10A C13A C18U C23G G27U, the self-cleavage came out at 0.01.

In the case of G5C C8A G17A G19C A25C G40C, the self-cleavage came out at 0.03.

Take G5C G19A G21A G22A: the self-cleavage was 0.1.

In the case of G5C G17U G19U A39G, the self-cleavage was 0.02.

Turning to G5C C13G C15A A26C, the self-cleavage was determined as 0.01.

On to G5C C10A G36A, for which the self-cleavage was determined as 0.03.

Turning to G5C C10A G36C, the self-cleavage is 0.05.

Take G5C A12G G19U C31U G36C: the self-cleavage is 0.01.

For the variant G5C C23G A26U U34G, the self-cleavage was 0.02.

For G5C G7A C8A C10G C13G G21C C37G U43G, the self-cleavage amounted to 0.01.

With G5C C15G C18U G40A, the self-cleavage stood at 0.07.

With G5C C10G C13G, the self-cleavage stood at 0.03.

In the case of G5C C8G G44A C45G, the self-cleavage was 0.02.

Consider G5C C23U G29U, for which the self-cleavage was 0.13.

As to G5A U20A G36U, the self-cleavage came to 0.03.

Consider G5C A26C U28C C31A, for which the self-cleavage came out at 0.01.

In the case of G5C C15G G29C G36C, the self-cleavage worked out at 0.02.

Take G5C C8A U28C: the self-cleavage was 0.03.

For the variant G5C A6U U9A A14C U20G G27A U28C C45A, the self-cleavage worked out at 0.05.

On to G5C A16C U20G, for which the self-cleavage was 0.01.

Regarding G5A U9C G21A G33U C37G, the self-cleavage turned out to be 0.

For G5C C10U G40C, the self-cleavage came to 0.02.

Turning to G5C A26U G27A C42G, the self-cleavage came out at 0.02.

For the variant G5C A14C G44C, the self-cleavage amounted to 0.04.

As for G5C A24G U28G G30A U38C, the self-cleavage is 0.01.

With G5C G7C C46A, the self-cleavage was 0.23.

On to G5C G17C G19U U38A, for which the self-cleavage was found to be 0.04.

With G5C C10G G30A C46G, the self-cleavage came to 0.02.

With G5C C31U U38A, the self-cleavage amounted to 0.1.

For the variant G5C G7A C15U A25G U38A, the self-cleavage is 0.03.

As to G5A U9A C15A G27A, the self-cleavage came to 0.37.

For the variant G5C A25U G30C, the self-cleavage stood at 0.02.

For the variant G5C A12U G19A G36C, the self-cleavage stood at 0.04.

As for G5A U9A C46A, the self-cleavage came out at 0.39.

For G5C C8A C13A, the self-cleavage was 0.07.

Consider G5C C8A C13G, for which the self-cleavage was determined as 0.09.

For G5C A26U A41C, the self-cleavage turned out to be 0.02.

As to G5C C37A C45U, the self-cleavage was 0.84.

On to G5C C8A U32G A39G, for which the self-cleavage amounted to 0.32.

For G5A U43C C45U, the self-cleavage came out at 0.09.

As for G5C C13U G27A, the self-cleavage is 0.09.

On to G5C G17A U34C, for which the self-cleavage was 0.07.

With G5A U20G A24C G40U A41G, the self-cleavage came to 0.06.

G5A U20A A24G G40U: the self-cleavage was 0.16.

Turning to G5C G17A U34C C37G, the self-cleavage was 0.04.

Take G5C A6C A11G G33U: the self-cleavage stood at 0.02.

G5C A11U A16U G29U G35U C37U: the self-cleavage was 0.01.

As to G5C G7C C8U A24U G27A G33C, the self-cleavage was found to be 0.09.

For G5C G7A C31A, the self-cleavage was 0.16.

For G5C C15A A24U G33C, the self-cleavage worked out at 0.02.

Regarding G5C A6U G30C, the self-cleavage was found to be 0.04.

As to G5A U28G U34A G44A, the self-cleavage amounted to 0.04.

With G5C A11U G36A, the self-cleavage was 0.04.

For the variant G5C A26U U43G, the self-cleavage was 0.07.

Turning to G5C C8U G17A G19A, the self-cleavage was found to be 0.13.

As to G5C G17A C18G U32G G33C, the self-cleavage is 0.07.

For the variant G5C A12G G44A, the self-cleavage turned out to be 0.

For G5C A24U C31U U34C, the self-cleavage amounted to 0.32.

For G5A U20C G27A U34C G36U, the self-cleavage was determined as 0.03.

For G5C G17C A41G, the self-cleavage worked out at 0.02.

Take G5A U20C A39G: the self-cleavage amounted to 0.01.

For the variant G5C C10G A12U A25C G29C G35A C46U, the self-cleavage is 0.01.

With G5C C15G C18G, the self-cleavage came out at 0.01.

For the variant G5A U9A C23A A24G A26G G44U, the self-cleavage is 0.02.

Consider G5C G7A C45A C46U, for which the self-cleavage was determined as 0.24.

Consider G5C C13A G29U G35U, for which the self-cleavage is 0.07.

For G5C C13A G21U U28C, the self-cleavage is 0.04.

As for G5C A6C G30A C45A, the self-cleavage was 0.22.

As to G5A U9C G19U, the self-cleavage stood at 0.02.

On to G5C A25C G27U, for which the self-cleavage turned out to be 0.01.

Regarding G5C C15U A24G C37A A41C, the self-cleavage amounted to 0.06.

G5C G17U C42U: the self-cleavage worked out at 0.06.

With G5C C13A U20A U34G, the self-cleavage was found to be 0.02.

Regarding G5A U20G G35C A39U, the self-cleavage is 0.03.

Consider G5C A25U U28C U32A, for which the self-cleavage amounted to 0.

As for G5C A12C C18A G30C C31G, the self-cleavage worked out at 0.03.

With G5C C10U U38C C45A, the self-cleavage was determined as 0.

As to G5C C13A C45A, the self-cleavage is 0.08.

Regarding G5C C10U C13G C18G U28C U34G, the self-cleavage is 0.03.

Consider G5C C13U G22C A26U U28G A39C, for which the self-cleavage was determined as 0.02.

Turning to G5C C37G A39U A41G, the self-cleavage came to 0.02.

G5A U20A A26U: the self-cleavage was 0.22.

As to G5A U34G C37U U38C A39G, the self-cleavage was found to be 0.03.

For the variant G5C C23U A26G, the self-cleavage worked out at 0.03.

For the variant G5A U9G C13A U28G U34C, the self-cleavage is 0.02.

G5C A14C C45A: the self-cleavage is 0.04.

For G5C C23U C37A, the self-cleavage was found to be 0.09.

For G5C A16U G22C G35U C46U, the self-cleavage was determined as 0.11.

Regarding G5C C13G C15A A25C, the self-cleavage is 0.07.

With G5C A6C A14C A16G, the self-cleavage came out at 0.05.

Turning to G5C C8U C10A A11C, the self-cleavage worked out at 0.

Regarding G5C A12C G17U C45U, the self-cleavage is 0.01.

Turning to G5C G7A C18A, the self-cleavage was 0.08.

G5A U9G C18U A41C C42A G44U C45A: the self-cleavage amounted to 0.03.

G5C C10A G40U: the self-cleavage was 0.

With G5C C13A G27A A39C, the self-cleavage came to 0.02.

Take G5C A12C A14C G21A G22U: the self-cleavage came to 0.02.

As to G5A U20C G40A G44A, the self-cleavage turned out to be 0.02.

Consider G5C A24C C37A, for which the self-cleavage turned out to be 0.01.

As to G5C G17U C23A U38C A39U, the self-cleavage worked out at 0.03.

Consider G5C G7C C8G G22C U32A G33U, for which the self-cleavage was 0.06.

With G5C A11U C13A G30C U38G G40C, the self-cleavage came to 0.01.

As to G5C C10U A24U A25U, the self-cleavage came to 0.02.

As for G5C A6G G21U, the self-cleavage is 0.09.

As to G5C C15A G22C, the self-cleavage came to 0.16.

With G5A U9A C18A, the self-cleavage was 0.22.

On to G5C A14G A16U G22A A25G G44U, for which the self-cleavage is 0.03.

Take G5C G7U C18U C42U: the self-cleavage stood at 0.11.

Consider G5A U28A G40U, for which the self-cleavage came to 0.05.

As for G5C C15G A16G G27U G30C A41G, the self-cleavage turned out to be 0.04.

G5C G17U A39G: the self-cleavage is 0.02.

On to G5C G7C G17A, for which the self-cleavage turned out to be 0.01.

As to G5C C13A A25G G30C, the self-cleavage came to 0.17.

As to G5C A26G G36U, the self-cleavage was 0.03.

For G5C C15A G21U G33A, the self-cleavage came out at 0.05.

Regarding G5C G17A U34A G44A, the self-cleavage came to 0.02.

Turning to G5C G7C C8U G19U G27A U38C, the self-cleavage amounted to 0.24.

As for G5C A14G C31U, the self-cleavage is 0.03.

Consider G5C C10A U28A C31G G35C G44U, for which the self-cleavage came to 0.01.

For G5C A14C G36C, the self-cleavage is 0.06.

Take G5C A26C G33A: the self-cleavage came out at 0.01.

On to G5C C15U C46G, for which the self-cleavage is 0.03.

Regarding G5C G7U U43A, the self-cleavage was 0.35.

G5C C23A G27A: the self-cleavage amounted to 0.03.

G5C C10A C13U U28A C46A: the self-cleavage amounted to 0.02.

Consider G5C G17U C18U G33U, for which the self-cleavage worked out at 0.02.

With G5C A11G C23U U34A, the self-cleavage came to 0.

For G5C A11G C15U A26U, the self-cleavage came to 0.03.

On to G5C A16C G21A, for which the self-cleavage is 0.02.

Turning to G5C A11G G29A G30A G35U, the self-cleavage was 0.02.

Regarding G5C G7U A11C, the self-cleavage was 0.15.

On to G5C A6C G22U, for which the self-cleavage is 0.3.

Take G5C C8A G40U: the self-cleavage was determined as 0.14.

As to G5C A14U G17U, the self-cleavage was 0.06.

Take G5A U9C U34A G35A: the self-cleavage stood at 0.03.

Take G5C C13G G17U: the self-cleavage is 0.23.

For G5C C15A A24C G40C, the self-cleavage was found to be 0.02.

For the variant G5C A6C C15G, the self-cleavage came to 0.01.

As for G5C C8G G27A U28C, the self-cleavage was 0.02.

Turning to G5A U28A C31U G36A, the self-cleavage stood at 0.01.

Turning to G5C C15U G33A, the self-cleavage is 0.16.

Consider G5C A26C G30U G35A A41G C46U, for which the self-cleavage is 0.03.

As for G5C A11U C13A A24U G33C G36A C42A, the self-cleavage amounted to 0.01.

Consider G5C G7U A14U G27U C37A C46U, for which the self-cleavage is 0.18.

Consider G5C A11U A12U C13G A26C, for which the self-cleavage worked out at 0.03.

As to G5C A14G G21C G36U G44C, the self-cleavage turned out to be 0.03.

Regarding G5C A26C U34A, the self-cleavage was found to be 0.08.

For the variant G5C C8G A39G, the self-cleavage stood at 1.06.

Regarding G5C A16C C18A U28A, the self-cleavage stood at 0.02.

Take G5C A12G A39U C45A: the self-cleavage was determined as 0.13.

In the case of G5C C23A G33A G44A, the self-cleavage amounted to 0.13.

In the case of G5C C8G G36U G40C, the self-cleavage worked out at 0.02.

Turning to G5C C8A A24C, the self-cleavage came to 0.25.

With G5C A16G G19U A25U, the self-cleavage is 0.03.

As for G5C A6C C13U C18A, the self-cleavage was 0.03.

As to G5C C13U C31A, the self-cleavage was 0.28.

Regarding G5C G7U U28G, the self-cleavage was 0.01.

For the origin of these results see the RNAGym collection of RNA variant scans (doi:10.7554/elife.90254).
